Experimental data: PMC4336329 (PLoS ONE, 2015)
The campaign covered roughly 310,000 compounds. About 2,200 (0.71%) showed an effect of 50% or more. The effect is printed as a negative number. Some of the results follow.

Target: human ether-à-go-go-related gene (hERG) potassium channel (human, UniProt Q12809)
Experiment: primary screen, population patch clamp on CHO cells stably expressing hERG

human ether-à-go-go-related gene (hERG) potassium channel, sequence (Q12809 whole entry, looked up): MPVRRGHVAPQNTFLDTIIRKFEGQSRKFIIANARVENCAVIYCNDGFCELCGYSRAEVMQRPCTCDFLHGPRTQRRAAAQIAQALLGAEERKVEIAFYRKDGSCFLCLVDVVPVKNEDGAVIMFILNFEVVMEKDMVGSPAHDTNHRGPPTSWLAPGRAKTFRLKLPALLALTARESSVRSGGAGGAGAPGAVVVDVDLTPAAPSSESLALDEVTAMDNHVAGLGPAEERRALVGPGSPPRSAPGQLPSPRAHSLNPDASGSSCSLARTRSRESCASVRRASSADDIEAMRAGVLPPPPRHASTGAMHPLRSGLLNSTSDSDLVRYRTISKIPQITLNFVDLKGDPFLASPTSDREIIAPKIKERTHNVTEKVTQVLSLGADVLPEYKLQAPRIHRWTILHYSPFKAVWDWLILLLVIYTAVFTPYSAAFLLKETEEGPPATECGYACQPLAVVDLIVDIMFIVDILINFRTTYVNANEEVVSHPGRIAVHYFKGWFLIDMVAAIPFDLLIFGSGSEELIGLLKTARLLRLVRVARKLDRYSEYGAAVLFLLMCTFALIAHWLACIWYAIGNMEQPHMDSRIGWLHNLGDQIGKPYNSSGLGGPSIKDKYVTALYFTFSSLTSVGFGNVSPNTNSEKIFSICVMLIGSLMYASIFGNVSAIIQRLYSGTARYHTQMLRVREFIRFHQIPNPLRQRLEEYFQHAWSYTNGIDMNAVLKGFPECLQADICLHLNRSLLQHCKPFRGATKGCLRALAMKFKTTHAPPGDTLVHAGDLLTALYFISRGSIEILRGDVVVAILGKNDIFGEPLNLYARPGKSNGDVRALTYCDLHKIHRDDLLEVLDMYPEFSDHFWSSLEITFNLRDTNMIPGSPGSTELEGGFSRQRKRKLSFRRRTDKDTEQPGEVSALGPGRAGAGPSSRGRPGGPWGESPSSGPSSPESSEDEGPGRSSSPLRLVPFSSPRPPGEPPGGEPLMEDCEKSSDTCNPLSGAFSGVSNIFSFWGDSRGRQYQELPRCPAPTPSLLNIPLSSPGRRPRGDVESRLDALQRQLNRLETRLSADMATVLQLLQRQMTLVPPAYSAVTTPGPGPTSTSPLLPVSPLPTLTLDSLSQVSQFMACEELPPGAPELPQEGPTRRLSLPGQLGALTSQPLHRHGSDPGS

Row | Compound | hERG current change (%, negative = inhibition) at 1uM [%]
1 | Cc1cc(C)cc(-n2ncc3c2CCCC3NC(=O)C2(C(N)=O)CC2)c1 (centres unmarked) | 15.3
2 | Clc1ccc(-c2c(C3=NCCCN3)nnn2-c2ccc(Cl)cc2)cc1 | -10.2
3 | Nc1nc(NCCO)nc(NC2CCCCC2)c1[N+](=O)[O-] | 13.2
4 | S=C(Nc1ccc(Cl)c(Cl)c1)NC1CCCCC1 | -7.02
5 | CCC(Cc1ccccc1)NS(=O)(=O)c1ccc2c(c1)NC(=O)C(C)S2 (centres unmarked) | 18.1
6 | CNC(=S)N(Cc1ccc(OC)cc1)C1CC(=O)N(c2ccc(Cl)cc2)C1=O (centres unmarked) | -1.59
7 | O=[N+]([O-])c1ccc(Cl)c2c1C1C=CCC1C(c1ccccn1)N2 (centres unmarked) | 15.1
8 | Cc1nc(C(=O)O)cc2c1[nH]c1ccccc12 | 2.19
9 | Br.C/C(=N\NC1=N[C@H]2CS(=O)(=O)C[C@H]2S1)c1ccccc1 | 11.4
10 | COC(=O)c1ccc(N/C(C)=C/C(=O)c2ccc(C)o2)cc1 | 7.96
11 | COc1ccc(C(C(=O)NC2CCCC2)N(CC2CCCO2)C(=O)Cn2nnc(-c3ccc(C)o3)n2)cc1 (centres unmarked) | 2.52
12 | O=C(c1ccc2c(=O)n(Cc3ccco3)c(=S)[nH]c2c1)N1CCN(Cc2ccccc2)CC1 | 13.1
13 | Cc1cc(N2C(=O)C(O)=C(C(=O)c3ccc(C)o3)C2c2cccc(Oc3ccccc3)c2)no1 (centres unmarked) | 17.4
14 | CCCCCCNC(=O)CCNC(=O)c1cc(OC)c(OC)c(OC)c1 | 4.93
15 | CC1CCN(Cc2c(C(=O)N/N=C/c3cccc(C(F)(F)F)c3)nnn2-c2nonc2N)CC1 | 13.9
16 | CSc1ccccc1NC(=O)CN(C)CC(=O)Nc1ccc(Cl)cc1F | 0.288
17 | C#Cc1cccc(NC(=O)C2CCN(C(C)=O)CC2)c1 | 9.75
18 | Cc1cc(S(=O)(=O)N2CCOCC2)ccc1OCC(=O)NCCCn1ccnc1 | 16.1
19 | CC[C@@H]1CC=C[C@H]2[C@H]1C(=O)N(Cc1ccccc1)[C@H]2c1ccc(C(F)(F)F)cc1 | 6.67

Row | Compound | hERG current change (%, negative = inhibition) at 1uM [%]
20 | NC(=O)Nn1c(CCC(=O)O)ccc1-c1ccc(Cl)cc1 | 5.06
21 | Cc1cc(C)cc(NC(=O)CN(C)S(=O)(=O)c2cccc3nsnc23)c1 | 8.35
22 | COc1ccc(-c2nn(CCC#N)cc2/C=N/O)cc1OC | 6.57
23 | CC1=CC(C)C2(CO)COC(c3ccc(O)cc3)C1C2C (centres unmarked) | 27.7
24 | Cc1ccc(-n2c(C)cc(C)c(C#N)c2=O)cc1C | 20.8
25 | Clc1cccc(CSc2ncn(-c3ccccc3)n2)c1 | -5.99
26 | CCN(c1nc(C)cc(OC)n1)S(=O)(=O)c1ccccc1 | -3.88
27 | CCOc1ccc(NC(=O)Cn2cc(C(=O)CC)c3ccccc32)cc1 | 15.3
28 | Cn1c(Cn2c(=O)sc3ccccc32)nnc1SCC(=O)NCc1ccc2c(c1)OCO2 | 2.81
29 | O=C(NCc1cccnc1)C(C(=O)c1ccc(F)cc1)n1ccccc1=O (centres unmarked) | 4.16
30 | Cc1ccc(S(=O)(=O)N2CCC(=O)N(CCOCc3cccc(Cl)c3)CC2)cc1 | -11.5
31 | CCOc1ccc2nc(N3CCC(C(=O)N4CCN(C(=O)c5ccco5)CC4)CC3)sc2c1 | -89.3
32 | Nc1ccc(CN2CCOCC2)cc1 | 16
33 | CC(C)C[C@H]1COCCS(=O)(=O)N1Cc1ccccc1F | 4.88
34 | C=C(C)C1CC=C(C)/C(=N/NC(=O)COc2ccc(C)cc2)C1 (centres unmarked) | 10.8
35 | N#C/C(=C\c1cn(CC(=O)N2CCCC2)c2ccccc12)C(=O)NCc1ccc2c(c1)OCO2 | -3.37
36 | CCC(=O)c1ccc(OCC(=O)Nc2cccc(S(=O)(=O)N(C)c3ccccc3)c2)cc1 | 5.86
37 | Cc1ccc(C2(c3ccc(C)cc3)NC(=O)N(CC(N)=O)C2=O)cc1 | 16.9
38 | CNC(=S)N/N=C(\C)c1ccc(-n2ccnc2)cc1 | 2.32

Row | Compound | hERG current change (%, negative = inhibition) at 1uM [%]
39 | Cc1ccccc1CSc1nnc(-c2ccccn2)n1N | 13.6
40 | COCCN(C(=O)c1c(C)noc1C)c1c(N)n(CC(C)C)c(=O)[nH]c1=O | 13.6
41 | Cc1cc(C(=O)COC(=O)c2ccc[nH]c2=O)c(C)n1CCc1ccc(F)cc1 | 14.3
42 | Cn1c(=O)oc2cc(S(=O)(=O)NCc3ccc(Cl)cc3)ccc21 | 15.3
43 | CC1CCN(C(=O)CSc2nnc(-c3ccccc3F)o2)CC1 | 4.66
44 | CC(C)(C)NC(=O)c1ccc2c3c(cccc13)CC2 | -7.92
45 | Cc1cc(Nc2ccc(Cl)cc2)nc(N)n1 | 2.49
46 | COc1ccc(NC(=O)C2CCN(S(=O)(=O)c3ccc4c(c3)CC(C)N4C(C)=O)CC2)c(OC)c1 (centres unmarked) | 8.18
47 | COC(=O)[C@H](C)NC(=O)NC1CCN(Cc2ccccc2)CC1 | 0.144
48 | COc1ccc(CNc2cc(C)nc3ncnn23)c(OC)c1 | -1.15
49 | Cc1c(NC(=O)/C=C/C(=O)O)cccc1[N+](=O)[O-] | 4.62
50 | CC(C)COc1ccc(C(=O)Nc2ccc([N+](=O)[O-])cc2)cc1 | 4.98
51 | FC(F)(F)c1ccc(Sc2nnc(-c3cccs3)n2CC2CCCO2)nc1 (centres unmarked) | 6.68
52 | Cc1ccc2cc(CN(CCN(C)C)C(=O)Nc3ccc(Cl)cc3)c(=O)[nH]c2c1 | -20.7
53 | Fc1ccccc1-c1nc(-c2ccccc2)no1 | 7.54
54 | CCOC(=O)COc1cnc2ccccc2n1 | 7.8
55 | CCCCn1c(SCC(=O)Nc2cccc(OC)c2)nc2ccc(N3CCOCC3)cc2c1=O | 7.31
56 | NC(=O)CCN1CCN(Cc2cn[nH]c2-c2cccc3ccccc23)CC1 | 2.16
